Measured values: patent US20120237507A1 (Hoffmann-La Roche, published 2012)

Target: T1, c-Met on A549 cells (UniProt P08581)
T1 construct: whole, on cells; Endogenous receptor on A549 cells; also called cell surface c-Met; c-Met receptor
Assay: half-maximal binding, flow cytometry on A549 cells
Procedure: A549 were detached and counted. 1.5×10e5 cells were seeded per well of a conical 96-well plate. Cells were spun down (1500 rpm, 4° C., 5 min) and incubated for 30 min on ice in 50 μL of a dilution series of the respective bispecific antibody in PBS with 2% FCS (fetal calf serum). Cells were again spun down and washed once with 200 μL PBS containing 2% FCS followed by a second incubation of 30 min with 5 μg/mL of Alexa488-coupled antibody directed against human Fc which was diluted in PBS containing 2% FCS (Jackson Immunoresearch, 109116098). Cells were spun down washed twice with 200 μL PBS containing 2% FCS, resuspended in BD CellFix solution (BD Biosciences) and incubated for at least 10 min on ice. Mean fluorescence intensity (mfi) of the cells was determined by flow cytometry (FACS Canto, BD). Mfi was determined at least in duplicates of two independent stainings Flow cytometry spectra were further processed using the FlowJo software (TreeStar). Half-maximal binding was determined using XLFit 4.0 (IDBS) and the dose response one site model 205.
A cell suspension was incubated with a threefold dilution series (100-0.0003 μg/mL) of the indicated antibodies. Bound antibodies were visualized with a secondary Alexa488-coupled antibody binding to the constant region of human immunoglobulin. Fluorescence intensity of single cells was measured on a FACS Canto (BD Biosciences) flow cytometer.

T1 sequence (P08581 25-1390 limits assumed): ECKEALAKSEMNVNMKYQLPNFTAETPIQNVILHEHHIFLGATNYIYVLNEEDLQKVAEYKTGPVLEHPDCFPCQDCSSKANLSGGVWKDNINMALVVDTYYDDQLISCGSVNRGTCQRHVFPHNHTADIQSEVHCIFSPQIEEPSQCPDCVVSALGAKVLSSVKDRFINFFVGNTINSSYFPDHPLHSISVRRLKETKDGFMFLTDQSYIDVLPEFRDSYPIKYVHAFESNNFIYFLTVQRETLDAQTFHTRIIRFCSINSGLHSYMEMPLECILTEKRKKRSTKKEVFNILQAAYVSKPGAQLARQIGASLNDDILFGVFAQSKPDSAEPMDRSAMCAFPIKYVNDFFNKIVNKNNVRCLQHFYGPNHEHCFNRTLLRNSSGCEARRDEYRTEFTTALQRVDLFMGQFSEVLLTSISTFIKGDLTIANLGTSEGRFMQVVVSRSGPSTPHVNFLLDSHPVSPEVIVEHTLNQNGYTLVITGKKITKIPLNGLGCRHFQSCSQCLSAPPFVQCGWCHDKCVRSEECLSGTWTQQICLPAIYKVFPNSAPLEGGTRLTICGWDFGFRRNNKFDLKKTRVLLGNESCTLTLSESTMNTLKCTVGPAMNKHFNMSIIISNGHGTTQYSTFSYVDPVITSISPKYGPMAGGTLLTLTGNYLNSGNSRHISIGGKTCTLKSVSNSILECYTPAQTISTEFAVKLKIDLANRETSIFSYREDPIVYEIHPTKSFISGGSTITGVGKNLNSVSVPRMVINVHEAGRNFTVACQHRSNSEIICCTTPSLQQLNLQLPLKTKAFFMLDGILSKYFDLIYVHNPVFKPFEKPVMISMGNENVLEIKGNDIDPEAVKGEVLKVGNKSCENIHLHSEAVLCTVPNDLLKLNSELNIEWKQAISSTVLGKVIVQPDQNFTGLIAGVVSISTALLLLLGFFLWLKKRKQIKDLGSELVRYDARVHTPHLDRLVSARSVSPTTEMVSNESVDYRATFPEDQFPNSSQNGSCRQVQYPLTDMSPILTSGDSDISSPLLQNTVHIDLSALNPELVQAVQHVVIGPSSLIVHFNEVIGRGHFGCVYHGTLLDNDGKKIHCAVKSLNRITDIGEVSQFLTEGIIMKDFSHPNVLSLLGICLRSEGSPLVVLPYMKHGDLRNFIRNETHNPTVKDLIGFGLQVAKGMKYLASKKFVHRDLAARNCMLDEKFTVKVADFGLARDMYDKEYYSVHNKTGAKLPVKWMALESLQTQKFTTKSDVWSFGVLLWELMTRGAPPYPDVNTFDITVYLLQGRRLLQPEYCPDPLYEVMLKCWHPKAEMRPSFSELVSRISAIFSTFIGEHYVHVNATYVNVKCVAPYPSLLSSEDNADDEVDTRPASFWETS

B1: c-Met 5D5 MoAb (“wt”) (other)
chain 1: DIQMTQSPSSLSASVGDRVTITCKSSQSLLYTSSQKNYLAWYQQKPGKAPKLLIYWASTRESGVPSRFSGSGSGTDFTLTISSLQPEDFATYYCQQYYAYPWTFGQGTKVEIKSS[human IgG1 constant region not shown]
chain 2: EVQLVESGGGLVQPGGSLRLSCAASGYTFTSYWLHWVRQAPGKGLEWVGMIDPSNSDTRFNPNFKDRFTISADTSKNTAYLQMNSLRAEDTAVYYCATYRSYVTPLDYWGQGTLVTVSSASVAAPSVFIFPPSDEQLKSGTASVVCLLNNFYPREAKVQWKVDNALQSGNSQESVTEQDSKDSTYSLSSTLTLSKADYEKHKVYACEVTHQGLSSPVTKSFNRGE[human IgG1 Fc not shown]
notes: Monovalent antibody-like heterodimer of two modified heavy chains (CH1-CL exchange), no light chains, no knobs-into-holes; also called c-Met MoAb; MoAb c-Met
An EC50 of 1.57 nM was found for B1 in this work.
